Measurements taken from the supplement of paper PMC11876631.
Residue numbers refer to the chain shown, from its start. Names and notes keep the numbering of the source. ± gives the standard deviation of the averaged measurements. Laboratory Escherichia coli strains with one amino-acid change in an essential protein, pooled on minimal glucose agar with carbenicillin or gentamicin at twice the control MIC (plus kanamycin and chloramphenicol for the plasmids), 48 h. Fold change of barcode share against drug-free plates; higher = less susceptible. Active = above 20 in both replicates (the paper's putatively resistant). '<' = one read or none on drug, '>' = one read or none on a drug-free plate. Shares are relative, so most strains fall below 1 when a few take over. Listed are strains with at least 15 reads on both drug-free plates, and hits; most hits rest on fewer reference reads. Replicate rank correlation about 0.5. Edits are read from barcodes.

B1: eno M94D (protein)
chain: MSKIVKIIGREIIDSRGNPTVEAEVHLEGGFVGMAAAPSGASTGSREALELRDGDKSRFLGKGVTKAVAAVNGPIAQALIGKDAKDQAGIDKIDIDLDGTENKSKFGANAILAVSLANAKAAAAAKGMPLYEHIAELNGTPGKYSMPVPMMNIINGGEHADNNVDIQEFMIQPVGAKTVKEAIRMGSEVFHHLAKVLKAKGMNTAVGDEGGYAPNLGSNAEALAVIAEAVKAAGYELGKDITLAMDCAASEFYKDGKYVLAGEGNKAFTSEEFTHFLEELTKQYPIVSIEDGLDESDWDGFAYQTKVLGDKIQLVGDDLFVTNTKILKEGIEKGIANSILIKFNQIGSLTETLAAIKMAKDAGYTAVISHRSGETEDATIADLAVGTAAGQIKTGSMSRSDRVAKYNQLIRIEEALGEKAPYNGRKEIKGQA
B2: eno I183A (protein)
chain: B1 chain with D94M, I183A
B3: eno I171W (protein)
chain: B1 chain with D94M, I171W
B4: eno L112P (protein)
chain: B1 chain with D94M, L112P
B5: fabD V114A (protein)
chain: MTQFAFVFPGQGSQTVGMLADMAASYPIVEETFAEASAALGYDLWALTQQGPAEELNKTWQTQPALLTASVALYRVWQQQGGKAPAMMAGHSLGEYSALVCAGVIDFADAVRLAEMRGKFMQEAVPEGTGAMAAIIGLDDASIAKACEEAAEGQVVSPVNFNSPGQVVIAGHKEAVERAGAACKAAGAKRALPLPVSVPSHCALMKPAADKLAVELAKITFNAPTVPVVNNVDVKCETNGDAIRDALVRQLYNPVQWTKSVEYMAAQGVEHLYEVGPGKVLTGLTKRIVDTLTASALNEPSAMAAALEL
B6: fbaA L335D (protein)
chain: MSKIFDFVKPGVITGDDVQKVFQVAKENNFALPAVNCVGTDSINAVLETAAKVKAPVIVQFSNGGASFIAGKGVKSDVPQGAAILGAISGAHHVHQMAEHYGVPVILHTDHCAKKLLPWIDGLLDAGEKHFAATGKPLFSSHMIDLSEESLQENIEICSKYLERMSKIGMTLEIELGCTGGEEDGVDNSHMDASALYTQPEDVDYAYTELSKISPRFTIAASFGNVHGVYKPGNVVLTPTILRDSQEYVSKKHNLPHNSLNFVFHGGSGSTAQEIKDSVSYGVVKMNIDTDTQWATWEGVLNYYKANEAYLQGQLGNPKGEDQPNKKYYDPRVWDRAGQTSMIARLEKAFQELNAIDVL
B7: fbaA I120Q (protein)
chain: B6 chain with I120Q, D335L
B8: ffh L188Q (protein)
chain: MFDNLTDRLSRTLRNISGRGRLTEDNVKDTLREVRMALLEADVALPVVREFINRVKEKAVGHEVNKSLTPGQEFVKIVRNELVAAMGEENQTLNLAAQPPAVVLMAGLQGAGKTTSVGKLGKFLREKHKKKVLVVSADVYRPAAIKQLETLAEQVGVDFFPSDVGQKPVDIVNAALKEAKLKFYDVLQVDTAGRLHVDEAMMDEIKQVHASINPVETLFVVDAMTGQDAANTAKAFNEALPLTGVVLTKVDGDARGGAALSIRHITGKPIKFLGVGEKTEALEPFHPDRIASRILGMGDVLSLIEDIESKVDRAQAEKLASKLKKGDGFDLNDFLEQLRQMKNMGGMASLMGKLPGMGQIPDNVKSQMDDKVLVRMEAIINSMTMKERAKPEIIKGSRKRRIAAGCGMQVQDVNRLLKQFDDMQRMMKKMKKGGMAKMMRSMKGMMPPGFPGR
B9: erpA V70W (protein)
chain: MSDDVALPLEFTDAAANKVKSLIADEDNPNLKLRVYITGGGCSGFQYGFTFDDQVNEGDMTIEKQGVGLWVDPMSLQYLVGGSVDYTEGLEGSRFIVTNPNAKSTCGCGSSFSI
B10: erpA V71W (protein)
chain: B9 chain with W70V, V71W
B11: erpA V84A (protein)
chain: B9 chain with W70V, V84A
B12: fabB V174Q (protein)
chain: MKRAVITGLGIVSSIGNNQQEVLASLREGRSGITFSQELKDSGMRSHVWGNVKLDTTGLIDRKVVRFMSDASIYAFLSMEQAIADAGLSPEAYQNNPRVGLIAGSGGGSPRFQVFGADAMRGPRGLKAVGPYVVTKAMASGVSACLATPFKIHGVNYSISSACATSAHCIGNAQEQIQLGKQDIVFAGGGEELCWEMACEFDAMGALSTKYNDTPEKASRTYDAHRDGFVIAGGGGMVVVEELEHALARGAHIYAEIVGYGATSDGADMVAPSGEGAVRCMKMAMHGVDTPIDYLNSHGTSTPVGDVKELAAIREVFGDKSPAISATKAMTGHSLGAAGVQEAIYSLLMLEHGFIAPSINIEELDEQAAGLNIVTETTDRELTTVMSNSFGFGGTNATLVMRKLKD
B13: argA L400P (protein)
chain: MVKERKTELVEGFRHSVPYINTHRGKTFVIMLGGEAIEHENFSSIVNDIGLLHSLGIRLVVVYGARPQIDANLAAHHHEPLYHKNIRVTDAKTLELVKQAAGTLQLDITARLSMSLNNTPLQGAHINVVSGNFIIAQPLGVDDGVDYCHSGRIRRIDEDAIHRQLDSGAIVLMGPVAVSVTGESFNLTSEEIATQLAIKLKAEKMIGFCSSQGVTNDDGDIVSELFPNEAQARVEAQEEKGDYNSGTVRFLRGAVKACRSGVRRCHLISYQEDGALLQELFSRDGIGTQIVMESAEQIRRATINDIGGILELIRPLEQQGILVRRSREQLEMEIDKFTIIQRDNTTIACAALYPFPEEKIGEMACVAVHPDYRSSSRGEVLLERIAAQAKQSGLSKLFVPTTRSIHWFQERGFTPVDIDLLPESKKQLYNYQRKSKVLMADLG
B14: argA V399D (protein)
chain: B13 chain with V399D, P400L

molecular target: Escherichia coli (laboratory strain); experiment: barcode share on antibiotic plates over drug-free plates; higher = less susceptible; details: antibiotic: gentamicin; 2× MIC (MIC 0.45 µg/mL)
Method: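 A pool of E. coli strains, each edited to carry one amino-acid change in an essential protein, was grown for 48 h on minimal glucose agar with or without antibiotic; strain barcodes were sequenced; mean of two replicates.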

Protein	fold change of barcode share
B1	< 0.0213
B2	< 0.0132
B3	> 47 [active]
B4	> 89.6 [active]
B5	< 0.0185
B6	> 50.6 [active]
B7	> 509 [active]
B8	< 0.0206
B9	1720 [active]
B10	> 221 [active]
B11	> 16600 [active]
B12	< 0.0212
B13	< 0.0196
B14	0.0359 ± 0.016
